The values below come from publication PMC8968644.

Common to all, as to assay: co-IP; HeLa cells cotransfected with the two expression plasmids for 48 h, lysed; lysate preabsorbed with Protein A/G PLUS-agarose; 1.5 μg immunoprecipitation antibody (anti-AGGF1; reciprocal with anti-integrin for the wild type) or anti-mouse IgG overnight at 4 °C; Western blot for the partner
In general terms: In western blotting, separated proteins are transferred to a membrane and probed.

Experiment [1] has as its target T1, Angiogenic factor with G patch and FHA domains 1 (AGGF1), wild type (UniProt Q8N302).
T1 sequence: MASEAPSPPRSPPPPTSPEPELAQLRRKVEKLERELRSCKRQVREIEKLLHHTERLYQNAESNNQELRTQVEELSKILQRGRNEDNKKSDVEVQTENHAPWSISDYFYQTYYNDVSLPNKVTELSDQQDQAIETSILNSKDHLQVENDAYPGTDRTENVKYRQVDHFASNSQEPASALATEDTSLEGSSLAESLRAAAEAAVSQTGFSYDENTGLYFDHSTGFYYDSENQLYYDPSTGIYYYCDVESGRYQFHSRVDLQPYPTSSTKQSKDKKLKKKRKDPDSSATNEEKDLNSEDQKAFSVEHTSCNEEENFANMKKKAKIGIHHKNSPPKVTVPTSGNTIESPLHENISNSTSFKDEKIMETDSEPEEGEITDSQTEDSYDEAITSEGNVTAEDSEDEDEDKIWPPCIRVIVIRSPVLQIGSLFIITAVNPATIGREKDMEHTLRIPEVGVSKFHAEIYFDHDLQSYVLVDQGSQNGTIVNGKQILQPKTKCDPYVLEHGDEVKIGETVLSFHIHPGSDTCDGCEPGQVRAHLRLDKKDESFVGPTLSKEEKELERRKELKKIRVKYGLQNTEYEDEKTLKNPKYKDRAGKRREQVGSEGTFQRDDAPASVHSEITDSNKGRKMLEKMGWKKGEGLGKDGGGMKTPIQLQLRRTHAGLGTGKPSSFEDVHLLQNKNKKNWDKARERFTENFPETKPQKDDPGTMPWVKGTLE

Experiment [2] addresses T2, AGGF1-C2 (C-terminal deletion mutant 2 of AGGF1) (UniProt Q8N302).
T2 sequence: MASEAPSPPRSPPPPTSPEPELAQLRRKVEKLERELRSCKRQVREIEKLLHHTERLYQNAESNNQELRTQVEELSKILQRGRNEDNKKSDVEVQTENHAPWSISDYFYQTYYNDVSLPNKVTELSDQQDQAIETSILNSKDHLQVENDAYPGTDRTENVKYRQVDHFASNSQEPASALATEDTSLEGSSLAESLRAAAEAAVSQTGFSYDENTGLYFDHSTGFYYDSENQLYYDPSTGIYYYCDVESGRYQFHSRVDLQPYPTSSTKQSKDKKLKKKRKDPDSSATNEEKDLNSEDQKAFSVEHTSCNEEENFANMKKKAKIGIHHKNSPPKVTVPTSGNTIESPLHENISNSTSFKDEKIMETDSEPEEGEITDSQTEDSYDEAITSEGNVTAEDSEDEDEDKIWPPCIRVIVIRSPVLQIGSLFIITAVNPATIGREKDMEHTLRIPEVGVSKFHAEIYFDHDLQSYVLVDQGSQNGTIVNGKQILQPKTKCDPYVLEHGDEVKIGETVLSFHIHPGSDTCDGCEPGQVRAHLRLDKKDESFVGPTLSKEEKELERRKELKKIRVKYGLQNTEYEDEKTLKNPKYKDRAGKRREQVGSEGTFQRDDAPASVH

Experiment [3] addresses T3, AGGF1-C3 (C-terminal deletion mutant 3 of AGGF1) (UniProt Q8N302).
T3 sequence: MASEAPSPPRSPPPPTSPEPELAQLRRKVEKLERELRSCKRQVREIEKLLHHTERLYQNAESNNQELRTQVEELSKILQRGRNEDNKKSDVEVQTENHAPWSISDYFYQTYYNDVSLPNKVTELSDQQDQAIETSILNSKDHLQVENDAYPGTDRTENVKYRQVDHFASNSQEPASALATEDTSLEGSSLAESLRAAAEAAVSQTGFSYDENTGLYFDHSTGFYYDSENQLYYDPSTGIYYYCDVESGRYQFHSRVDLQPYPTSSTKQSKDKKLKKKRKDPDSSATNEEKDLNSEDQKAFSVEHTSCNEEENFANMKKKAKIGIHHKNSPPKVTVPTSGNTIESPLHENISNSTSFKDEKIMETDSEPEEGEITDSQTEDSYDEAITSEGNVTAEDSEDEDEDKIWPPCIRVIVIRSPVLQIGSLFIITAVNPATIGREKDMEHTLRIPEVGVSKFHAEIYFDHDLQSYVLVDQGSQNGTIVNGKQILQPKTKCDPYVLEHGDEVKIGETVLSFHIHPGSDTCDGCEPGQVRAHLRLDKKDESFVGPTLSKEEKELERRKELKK

In experiment [4] the target is T4, AGGF1-C1 (C-terminal deletion mutant 1 of AGGF1) (UniProt Q8N302).
T4 sequence: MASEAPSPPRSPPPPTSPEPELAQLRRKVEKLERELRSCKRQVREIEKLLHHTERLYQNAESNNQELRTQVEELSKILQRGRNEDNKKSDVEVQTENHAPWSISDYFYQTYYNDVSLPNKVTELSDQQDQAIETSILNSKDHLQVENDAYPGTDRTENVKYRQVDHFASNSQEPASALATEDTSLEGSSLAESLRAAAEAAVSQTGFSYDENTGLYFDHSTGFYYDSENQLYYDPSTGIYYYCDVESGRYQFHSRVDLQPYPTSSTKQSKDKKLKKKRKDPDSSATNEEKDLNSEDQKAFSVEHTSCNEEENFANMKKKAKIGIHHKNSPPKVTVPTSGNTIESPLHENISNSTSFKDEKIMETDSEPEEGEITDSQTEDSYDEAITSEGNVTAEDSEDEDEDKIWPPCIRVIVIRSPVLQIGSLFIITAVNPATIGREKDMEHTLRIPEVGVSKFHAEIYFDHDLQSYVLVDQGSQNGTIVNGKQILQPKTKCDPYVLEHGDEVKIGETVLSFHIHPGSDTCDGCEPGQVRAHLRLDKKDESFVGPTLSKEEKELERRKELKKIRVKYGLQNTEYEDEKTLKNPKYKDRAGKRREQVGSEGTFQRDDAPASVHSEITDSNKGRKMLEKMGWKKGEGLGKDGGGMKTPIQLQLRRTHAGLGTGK

These are yes or no findings as the source states them, for the method shown. Binding seen in cells or lysates may run through a third protein. Some results given as binding are weak or reduced against the parent protein; the word gives no strength.

B1: Integrin α8 (ITGA8) (receptor, UniProt P53708 39-1063)
chain: FNLDVEKLTVYSGPKGSYFGYAVDFHIPDARTASVLVGAPKANTSQPDIVEGGAVYYCPWPAEGSAQCRQIPFDTTNNRKIRVNGTKEPIEFKSNQWFGATVKAHKGKVVACAPLYHWRTLKPTPEKDPVGTCYVAIQNFSAYAEFSPCRNSNADPEGQGYCQAGFSLDFYKNGDLIVGGPGSFYWQGQVITASVADIIANYSFKDILRKLAGEKQTEVAPASYDDSYLGYSVAAGEFTGDSQQELVAGIPRGAQNFGYVSIINSTDMTFIQNFTGEQMASYFGYTVVVSDVNSDGLDDVLVGAPLFMEREFESNPREVGQIYLYLQVSSLLFRDPQILTGTETFGRFGSAMAHLGDLNQDGYNDIAIGVPFAGKDQRGKVLIYNGNKDGLNTKPSQVLQGVWASHAVPSGFGFTLRGDSDIDKNDYPDLIVGAFGTGKVAVYRARPVVTVDAQLLLHPMIINLENKTCQVPDSMTSAACFSLRVCASVTGQSIANTIVLMAEVQLDSLKQKGAIKRTLFLDNHQAHRVFPLVIKRQKSHQCQDFIVYLRDETEFRDKLSPINISLNYSLDESTFKEGLEVKPILNYYRENIVSEQAHILVDCGEDNLCVPDLKLSARPDKHQVIIGDENHLMLIINARNEGEGAYEAELFVMIPEEADYVGIERNNKGFRPLSCEYKMENVTRMVVCDLGNPMVSGTNYSLGLRFAVPRLEKTNMSINFDLQIRSSNKDNPDSNFVSLQINITAVAQVEIRGVSHPPQIVLPIHNWEPEEEPHKEEEVGPLVEHIYELHNIGPSTISDTILEVGWPFSARDEFLLYIFHIQTLGPLQCQPNPNINPQDIKPAASPEDTPELSAFLRNSTIPHLVRKRDVHVVEFHRQSPAKILNCTNIECLQISCAVGRLEGGESAVLKVRSRLWAHTFLQRKNDPYALASLVSFEVKKMPYTDQPAKLPEGSIVIKTSVIWATPNVSFSIPLWVIILAILLGLLVLAILTLALWKCGFFDRARPPQEDMTDREQLTNDKTPEA
Regarding B1, the binding entry in experiment [1] is “no binding”.

B2: Integrin α7 (ITGA7) (receptor, UniProt Q13683 34-1181)
chain: FNLDVMGALRKEGEPGSLFGFSVALHRQLQPRPQSWLLVGAPQALALPGQQANRTGGLFACPLSLEETDCYRVDIDQGADMQKESKENQWLGVSVRSQGPGGKIVTCAHRYEARQRVDQILETRDMIGRCFVLSQDLAIRDELDGGEWKFCEGRPQGHEQFGFCQQGTAAAFSPDSHYLLFGAPGTYNWKGTARVELCAQGSADLAHLDDGPYEAGGEKEQDPRLIPVPANSYFGLLFVTNIDSSDPDQLVYKTLDPADRLPGPAGDLALNSYLGFSIDSGKGLVRAEELSFVAGAPRANHKGAVVILRKDSASRLVPEVMLSGERLTSGFGYSLAVADLNSDGWPDLIVGAPYFFERQEELGGAVYVYLNQGGHWAGISPLRLCGSPDSMFGISLAVLGDLNQDGFPDIAVGAPFDGDGKVFIYHGSSLGVVAKPSQVLEGEAVGIKSFGYSLSGSLDMDGNQYPDLLVGSLADTAVLFRARPILHVSHEVSIAPRSIDLEQPNCAGGHSVCVDLRVCFSYIAVPSSYSPTVALDYVLDADTDRRLRGQVPRVTFLSRNLEEPKHQASGTVWLKHQHDRVCGDAMFQLQENVKDKLRAIVVTLSYSLQTPRLRRQAPGQGLPPVAPILNAHQPSTQRAEIHFLKQGCGEDKICQSNLQLVRARFCTRVSDTEFQPLPMDVDGTTALFALSGQPVIGLELMVTNLPSDPAQPQADGDDAHEAQLLVMLPDSLHYSGVRALDPAEKPLCLSNENASHVECELGNPMKRGAQVTFYLILSTSGISIETTELEVELLLATISEQELHPVSARARVFIELPLSIAGMAIPQQLFFSGVVRGERAMQSERDVGSKVKYEVTVSNQGQSLRTLGSAFLNIMWPHEIANGKWLLYPMQVELEGGQGPGQKGLCSPRPNILHLDVDSRDRRRRELEPPEQQEPGERQEPSMSWWPVSSAEKKKNITLDCARGTANCVVFSCPLYSFDRAAVLHVWGRLWNSTFLEEYSAVKSLEVIVRANITVKSSIKNLMLRDASTVIPVMVYLDPMAVVAEGVPWWVILLAVLAGLLVLALLVLLLWKMGFFKRAKHPEATVPQYHAVKIPREDRQQFKEEKTGTILRNNWGSPRREGPDAHPILAADGHPELGPDGHPGPGTA
Consider B2, for which the binding result is given as “binds” in experiment [1], “binds” in experiment [2], “no binding” in experiment [3] and “binds” in experiment [4].
